Measured values: PubChem BioAssay AID1508624 (National Center for Advancing Translational Sciences (NCATS), 2021)
Among all 48,000 compounds or so, about 120 (0.25%) were called active. Roughly 4% stayed inconclusive and do not appear here. The call rests on the fitted dose curve; in most records, active means well fitted activation curve with a large enough effect; inconclusive means small, poorly fitted or top-dose-only effect, or another doubt; inactive means no such curve, though single readings can be large or run the other way. The list shows a part of the results.

assay: Primary qHTS for Identification of Small Molecule Activators of Huntingtin-Antisense Promoter Activity; details: HEK293 HTT-AS promoter firefly luciferase reporter, 24 h; series mostly up to 57.5 µM; activity change, positive = activation: at the top concentration; further: nearly all actives have a fitted effect of over 55% in size
Summary of the method: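 HEK293 Fluc reporter, 2,500 cells/well, 24 h pre-culture; cpds up to 57.5 uM final, 24 h 37 degrees C; Dual-Glo, 10 min RT; normalized vehicle = 0%, zero RLU = -100%.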

Compound	activity change, positive = activation
CCn1cc(C(=O)N2CCN(c3cccc(Cl)c3)CC2)c(=O)c2cc(S(=O)(=O)N3CCC(C)CC3)ccc21	inactive: -15.8%
Cc1ccc2c(=O)cc(CSc3ncn[nH]3)[nH]c2c1C	inactive: -2.62%
CCOC(=O)c1c(C)[nH]c(C)c1S(=O)(=O)N1CCC(C(=O)N2CCN(c3ccc(F)cc3)CC2)CC1	inactive: -12.9%
Cc1ccc2nc(NC(=O)c3ccc(S(=O)(=O)N4CCC(C)CC4)cc3)sc2c1	inactive: -12.5%
Cc1ccccc1CN1C(=O)c2ccccc2Sc2ccc(C(=O)NCCc3ccccc3)cc21	inactive: -12.1%
COc1cc(C(=O)NCCc2sc(-c3cccc(F)c3)nc2C)cc(OC)c1OC	inactive: -18.1%
Cc1nc2cc(-c3cccc(F)c3)nn2c(C)c1CCC(=O)NC(C)c1ccccc1 (configuration not stated)	inactive: -65.2%
O=C(Nc1ccccc1Br)c1cc(CN2CCCC2)on1	inactive: 16.6%
COc1cc2c(cc1NC(=O)c1ccccc1C)n(C)c(=O)n2C	inactive: 5.91%
CCc1ccc(CNC(=O)c2ccc(-c3nc(CSc4ccc(C)cc4)c(C)o3)cc2)cc1	inactive: 0%
O=C(CSc1oc(-c2ccc(F)cc2)nc1S(=O)(=O)c1ccccc1)NC1CCCCC1	inactive: -6.6%
CCSc1nnc(NC(=O)c2cc(=O)c3cc(C)ccc3o2)s1	inactive: 5.92% [at 11.5 µM, percent change from vehicle, -100% = no light]
COc1cccc(CNC(=O)CCn2cnc3ccccc3c2=O)c1	inactive: -4.68%
O=C(CCN1C(=O)c2ccccc2Sc2ncccc21)Nc1ccc(F)cc1	inactive: -15.2%
CC(CCc1ccccc1)NC(=O)Cn1ncc2c3ccccc3n(Cc3ccccc3)c2c1=O (configuration not stated)	inactive: -7.97%
CCCCOc1ccccc1C1CC(=O)Nc2cc(C)c(C)cc21 (configuration not stated)	inactive: -30.7%
COc1ccc(-c2nnc(SCC(=O)Nc3c(C)cccc3C)nc2-c2ccc(OC)cc2)cc1	inactive: -2.23% [at 11.5 µM, percent change from vehicle, -100% = no light]
CC(C)CNc1ncnc2onc(-c3ccc(Cl)cc3)c12	inactive: -14.2%
CCOC(=O)c1ccc(NC(=O)c2oc3c(c2C)-c2nn(Cc4ccccc4Cl)cc2CC3)cc1	inactive: -21.3%
Cc1cc2oc(C(=O)N(Cc3ccc(N(C)C)cc3)Cc3ccco3)c(C)c2cc1Cl	inactive: -20.7%
Cc1ccccc1Nc1nc(N)c(C(=O)c2ccccc2Cl)s1	inactive: -17.9%
CCCCc1ccc(NC(=O)CSc2nc(=O)[nH]c3c2CCCC3)cc1	inactive: -25.2%

Compound	activity change, positive = activation
CCOc1ccc(S(=O)(=O)N2CCN(Cc3nc4ccc(C)cc4o3)CC2)cc1	inactive: -28%
Oc1cc2c(cc1O)C1c3ccc(O)c(O)c3OCC1(O)C2 (configuration not stated)	inactive: -5.24%
O=C(CSc1nc2c([nH]c3ccccc32)c(=O)n1-c1ccccc1F)Nc1cccc(C(F)(F)F)c1	inactive: -36.8%
CCOc1ccc(NC(=O)c2cnc3sc(N4CCOCC4)nn3c2=O)cc1	inactive: -8.94%
COc1cccc(N2CC(NC(=O)COc3ccccc3F)CC2=O)c1 (configuration not stated)	inactive: -10.2%
COC(=O)CCN(c1ccccc1)C(CNS(=O)(=O)c1ccccc1)c1ccccc1 (configuration not stated)	inactive: -33.6%
CCOc1ccc(CCNC(=O)Cn2c(-c3cccs3)cc3ccccc32)cc1OCC	inactive: -32.2%
Cc1ccc(C)c(NC(=O)CSc2ccc3nc(-c4ccccc4)cn3n2)c1	inactive: 8.93%
COc1ccc(Nc2oc(/C=C/c3ccccc3OC)nc2C#N)cc1	inactive: 17%
O=C(Nc1cccc(C(=O)OCc2cc(=O)n3nc(C4CC4)sc3n2)c1)c1cccc(Cl)c1	inactive: 11.3%
Cc1ccc(-c2nc(S(=O)(=O)c3ccccc3)c(N3CCN(c4ccccc4)CC3)o2)cc1	inactive: -13.9%
Cc1ccc2nc(COc3ccccc3NC(=O)COc3ccc(F)cc3)cc(=O)n2c1	inactive: -9.76%
CCc1ccccc1NS(=O)(=O)c1ccc2[nH]cc(C(=O)N(CC(C)C)CC(C)C)c(=O)c2c1	inactive: -25.3%
CCc1ccccc1N(CC)C(=O)c1c(C)oc2ncn(C)c(=O)c12	inactive: -16.4%
COc1ccc(NC(=O)C2CCN(S(=O)(=O)c3ccc4c(c3)CCCC(=O)N4)CC2)cc1OC	inactive: -5.99%
O=C(Nc1ccccc1C(=O)OCc1cc(=O)n2c3c(sc2n1)CCCC3)c1ccc(F)cc1	inactive: -9.1%
COc1ccc(-c2nc(SCC(=O)Nc3ccc4c(c3)OCCO4)c(-c3ccc(F)cc3)[nH]2)cc1	inactive: -19.3%
Cc1cccc(C(C)C)c1NC(=O)Cn1c(=O)oc2cc(S(=O)(=O)N3CCCC3)ccc21	inactive: -29.8%
CCc1ccc2nc(N(CCN(CC)CC)C(=O)c3cccs3)sc2c1	inactive: 7.29%
Oc1ccc(-c2ccc(-c3cc(Nc4cccc(CNC5CC5)c4)n[nH]3)cc2)c(O)c1	inactive: -19%
COc1ccc(OC)c(C(=O)CC2(O)C(=O)N(Cc3ccccc3C)c3ccccc32)c1 (configuration not stated)	inactive: -30.3%
CCOC(=O)c1cccc(NC(=O)CCS(=O)(=O)c2ccc3c(c2)CC(=O)N3C)c1	inactive: 1.63%

Compound	activity change, positive = activation
Cc1ccc(S(=O)(=O)C2(C(=O)Nc3ccc(Cl)c(C(F)(F)F)c3)CC2)cc1	inactive: -15.6%
Cc1ccc(/C=C(\C#N)c2nc(-c3ccc(-c4ccccc4)cc3)cs2)cc1	inactive: 4.61%
COC(=O)c1ccc(Cl)cc1NC(=O)NCCc1c(C)nn(C)c1C	inactive: -2.38%
Cc1c(C(=O)N2CCOCC2)oc2c1-c1nn(CC(=O)NCc3cccc(F)c3)cc1CC2	inactive: -32.7%
CC(C)c1ccc(NC(=O)Cn2c(=O)n(CC3CCC(C(=O)NCCc4ccccc4)CC3)c(=O)c3ccccc32)cc1 (configuration not stated)	inactive: -10.3%
Cc1ccc(-n2c(=O)c3cccnc3n2CC(=O)Nc2cc(C)cc(C)c2)cc1	inactive: -15.8%
COc1ccccc1CNC(=O)Cn1c(=O)nc(-c2ccccc2F)c2cc(Cl)ccc21	inactive: 8.23%
COc1ccc(-n2ccnc2SCC(=O)Nc2ccc3c(c2)OCO3)cc1	inactive: -14.4%
O=C(NCCCCN1CCOCC1)c1cc2ccccc2o1	inactive: 1.78%
CC(C)(C)C1CCc2c(sc(NC(=O)Cn3nnc(-c4ccccc4Cl)n3)c2C#N)C1 (configuration not stated)	inactive: 0.655%
Cc1cccc(N2CCN(C(=O)CS(=O)(=O)c3cccc4nsnc34)CC2)c1C	inactive: -7.92%
Cc1ccc(Cl)cc1N1CCN(C(=O)C2CCC(CNS(=O)(=O)c3cccs3)CC2)CC1 (configuration not stated)	inactive: -21.4%
Cc1ccc(CNc2ccc(-c3nc(-c4ccncc4)no3)cc2[N+](=O)[O-])cc1	inactive: -11.4%
CCC(C(=O)NCc1cc(OC)ccc1OC)n1nc(C)c2sc3ccccc3c2c1=O (configuration not stated)	inactive: -17%
COc1cccc(C(=O)N2CCC(C(=O)Nc3cccc(Cl)c3)CC2)c1	inactive: -4.29%
Cc1cccc(CNC(=O)c2ccc(N3Cc4ccccc4Oc4ncccc43)s2)c1	inactive: -23.7%
CN(C)c1cccc(C(=O)N2CCC(c3c[nH]c4ccccc34)(c3c[nH]c4ccccc34)CC2)c1	inactive: -3.34%
COc1cc(C(=O)Nc2ccc(NC(=O)c3ccc(C(C)(C)C)cc3)cc2)cc(OC)c1OC	inactive: -48.9%
O=C(COCc1cc(-c2cccs2)on1)N1CCN(c2ccccc2)CC1	inactive: -1.37%
COc1ccccc1C(=O)Nc1ccc2nc(SCCOc3ccccc3C)sc2c1	inactive: -18.3%
CC(C)c1ccc(N2C(=O)CSC23C(=O)N(Cc2cccc(F)c2)c2ccccc23)cc1 (configuration not stated)	inactive: -13.2%
COc1ccc(OC)c(CNC(=O)C2CCCN(c3ncnc4onc(-c5ccc(F)cc5)c34)C2)c1 (configuration not stated)	inactive: -5.53%

Compound	activity change, positive = activation
Fc1ccc(NCc2nnc3n2CCCCC3)cc1Cl	inactive: -1.23%
COc1cccc(C(=O)Nc2nc3nc(-c4ccccc4)cc(=O)n3[nH]2)c1	inactive: 2.1%
O=C1c2oc3ccccc3c(=O)c2C(c2cccc(O)c2)N1c1nncs1 (configuration not stated)	inactive: -18.5%
CCOC(=O)c1c(-c2ccc(C)cc2)csc1NC(=O)c1cc(=O)c2cc(C)ccc2o1	inactive: -14.9%
O=C(Cn1c(=O)nc(-c2ccccc2)c2ccccc21)NCCc1ccccc1	inactive: 1.45%
CC(=O)c1ccc(NC(=O)CN2C(=O)CN(C)C(=O)c3ccccc32)cc1	inactive: -9.55%
COc1cccc(CNC(=O)C2=C(C)C(=O)OC23CCN(C(C)=O)CC3)c1OC	inactive: -7.27%
COc1cc(Nc2nc(SCc3ccc(Cl)cc3)nc3ccccc23)cc(OC)c1	inactive: -22.5%
COc1ccc(-c2oc3ncn4nc(COc5cccc(C)c5C)nc4c3c2-c2ccc(OC)cc2)cc1	inactive: -10.6%
O=C(Nc1c(C(=O)N2CCN(c3ccccc3F)CC2)oc2ccccc12)c1cccc(F)c1	inactive: 9.51%
Cc1oc(-c2ccc(C(=O)Nc3ccc(F)cc3)cc2)nc1COc1ccccc1	inactive: -19.7%
CC1CCCN(c2cc3c(cc2F)c(=O)c(S(=O)(=O)c2cccc(Cl)c2)cn3Cc2ccccc2)C1 (configuration not stated)	inactive: -8.15%
COc1ccc(CCNC(=O)C(=O)NCC(c2ccco2)S(=O)(=O)c2ccc(C)cc2)cc1 (configuration not stated)	inactive: -10.9%
Cc1cccc(CS(=O)(=O)c2ncc(Cl)c(C(=O)Nc3nnc(C(C)C)s3)n2)c1	inactive: -94.6%
CC(C)NC(=O)c1ccc(Cn2c(SCc3ccc(F)cc3)nc3cccnc32)cc1	inactive: 6.45%
O=C(CCn1c(=O)c2cccn2c2cccnc21)N1CCN(c2cccc(C(F)(F)F)c2)CC1	inactive: -37.2%
COC(=O)c1ccc(C2Nc3c(C)cccc3-c3cc(C)nn32)cc1 (configuration not stated)	inactive: 6.92% [at 11.5 µM, percent change from vehicle, -100% = no light]
COc1ccc(NC(=O)C(NS(=O)(=O)c2cccc3nsnc23)C(C)C)cc1 (configuration not stated)	inactive: 6.41% [at 11.5 µM, percent change from vehicle, -100% = no light]
CCOC(=O)c1c(NC(=O)c2cc(-c3ccc(Br)cc3)on2)sc(C(C)=O)c1C	inactive: 11.5% [at 11.5 µM, percent change from vehicle, -100% = no light]
NC[C@H]1O[C@H](O[C@@H]2[C@@H](O)[C@@H](O[C@H]3O[C@H](CO)[C@@H](O)[C@H](N)[C@@H]3O)[C@H](N)C[C@@H]2N)[C@H](O)[C@@H](O)[C@H]1O	inactive: -29.8%
O=C(c1ccc(F)cc1)c1cn(Cc2ccccc2)c2cc3c(cc2c1=O)OCO3	inactive: -3.61%
